Test results taken from the supplement of paper PMC3334620.
The full ranking holds about 33,000 sequences; the median of “E-score (-0.5 to 0.5)” is about -0.01, and the highest 2% start at about 0.26. Some of the results follow.

biological target: Ste12 (UniProt P13574); experiment: PBM E-score (8-mer binding enrichment) (E-score (-0.5 to 0.5)); higher = stronger / more preferred TF binding; most listed sequences are background and not binding sites; settings: protein concentration: 200 nM; construct: GST-DNA-binding domain
Method in brief: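 Masliner-normalised scans of fluorescent anti-GST signal were the basis for scoring. That signal came from GST-tagged yeast transcription factors applied at about 100-200 nM to double-stranded universal all-10-mer Agilent arrays on fresh or once-stripped slides. Each ungapped eight-base word, pooled with its reverse complement, received an E-score from the Universal PBM Analysis Suite.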

Compared with AACGATTA, ATCGGCGA is lower in “PBM E-score” value: -0.00667 for the first, -0.105 for the second.

Compared with ATACGTAT, ATAGATTC is lower in “PBM E-score” value: 0.19 for the first, 0.00524 for the second.

Compared with GCTCCCCA, CTTGGGCA is higher in “PBM E-score” value: -0.151 for the first, 0.0586 for the second.

First: GGGCAGGA
Second: AAGCTTCC
The “PBM E-score” value of the first is higher: -0.0883 for the first, -0.121 for the second.

First: ATTATGTC
Second: GCTCACCA
The “PBM E-score” value of the first is higher: 0.0876 for the first, -0.178 for the second.

Going from TGTAGCAA to CTGTAGCC, the “PBM E-score” value falls from 0.00056 to -0.148.

Compared with CGCTTACA, GCCCATAA is lower in “PBM E-score” value: -0.0519 for the first, -0.0817 for the second.

Going from CTAACCTA to GAATCGAC, the “PBM E-score” value rises from 0.0297 to 0.125.

Compared with GAGACTGA, AATTACCA is higher in “PBM E-score” value: -0.151 for the first, 0.17 for the second.

First: GAAAAGTA
Second: TTGCGAAA
The “PBM E-score” value of the first is higher: 0.249 for the first, 0.234 for the second.

Going from AAGTTTCC to AAGCAAGC, the “PBM E-score” value rises from 0.11 to 0.227.

First: AGTGAGCG
Second: GTAAATAC
The “PBM E-score” value of the first is lower: -0.176 for the first, 0.0368 for the second.

Compared with GGAGTGCA, AATGTGCA is lower in “PBM E-score” value: 0.146 for the first, 0.124 for the second.

Going from GAATGAGA to AGCATGGG, the “PBM E-score” value falls from -0.00579 to -0.0459.

Going from ATACGATC to CCGTTCCC, the “PBM E-score” value falls from 0.157 to -0.0627.

Compared with ACAGCAAT, GAGCAGCA is lower in “PBM E-score” value: 0.0379 for the first, 0.0309 for the second.

First: AAAGAATC
Second: GATCTGCC
The “PBM E-score” value of the first is higher: 0.136 for the first, 0.0158 for the second.

Compared with GCCTGCAA, AGTGTAGC is higher in “PBM E-score” value: 0.0142 for the first, 0.111 for the second.

Going from ACTTCGAT to CGCTACTC, the “PBM E-score” value falls from 0.0438 to -0.089.

Compared with AAGGGGTG, CTAGAGGA is lower in “PBM E-score” value: -0.0295 for the first, -0.234 for the second.

First: GTAGTCAC
Second: AGAGCTAG
The “PBM E-score” value of the first is lower: -0.118 for the first, -0.00688 for the second.

First: GGACCACC
Second: GGCCCACA
The “PBM E-score” value of the first is higher: -0.0477 for the first, -0.0869 for the second.

First: CACGTGGC
Second: CCTGTTTA
The “PBM E-score” value of the first is lower: -0.229 for the first, 0.0871 for the second.

First: CGAGTAAG
Second: GACAATCA
The “PBM E-score” value of the first is higher: 0.155 for the first, -0.168 for the second.

First: CTTAAACC
Second: ATCCGTAC
The “PBM E-score” value of the first is lower: -0.0326 for the first, 0.0195 for the second.

Compared with ACATGCAA, CCTCGCGA is lower in “PBM E-score” value: 0.108 for the first, 0.0144 for the second.

Compared with AGGCGGTC, ACAAGTGG is higher in “PBM E-score” value: -0.102 for the first, 0.00236 for the second.

First: CGATGAAC
Second: AGGATACG
The “PBM E-score” value of the first is higher: 0.124 for the first, -0.265 for the second.

Going from AGAAATAC to CTAACGGA, the “PBM E-score” value falls from -0.0119 to -0.0211.

Compared with GGAACATA, CTTTCTTC is lower in “PBM E-score” value: 0.103 for the first, 0.0726 for the second.

First: CGATGTAG
Second: AACAAATT
The “PBM E-score” value of the first is lower: -0.0556 for the first, 0.268 for the second.

Compared with AACACGGT, GAGGAGGC is lower in “PBM E-score” value: 0.0872 for the first, -0.138 for the second.

First: CTGAAACA
Second: ATGGTAGA
The “PBM E-score” value of the first is higher: 0.495 for the first, 0.0532 for the second.

Going from AGTATTTA to AGCTAGCT, the “PBM E-score” value falls from 0.0755 to -0.0845.

Compared with GCGATGAA, CTTCAAAC is higher in “PBM E-score” value: 0.116 for the first, 0.218 for the second.

Compared with AGCTAGTA, ACATGCGT is higher in “PBM E-score” value: -0.0302 for the first, 0.0857 for the second.

First: CGCTTACC
Second: GCCACATA
The “PBM E-score” value of the first is lower: -0.175 for the first, -0.165 for the second.

Going from ACAATGTG to GTTTGAAA, the “PBM E-score” value rises from 0.132 to 0.409.

Compared with AAATGCGG, CACCACCA is lower in “PBM E-score” value: 0.113 for the first, 0.0187 for the second.

Compared with CCTTAACG, CCGACGGC is lower in “PBM E-score” value: 0.0779 for the first, -0.0579 for the second.

Compared with CGTGATGC, CGGGATGC is lower in “PBM E-score” value: 0.0567 for the first, -0.111 for the second.

Going from GTTACTCA to CTTGCGCA, the “PBM E-score” value rises from 0.0672 to 0.156.

First: AGATCTTA
Second: GCGCATTA
The “PBM E-score” value of the first is higher: 0.0906 for the first, -0.0799 for the second.

First: AAAATGAA
Second: CTTTGCGC
The “PBM E-score” value of the first is higher: 0.27 for the first, 0.117 for the second.

Compared with CATTTCGC, ATCAAGCG is higher in “PBM E-score” value: -0.0451 for the first, 0.059 for the second.

Compared with GATGTGTA, CCATTGGA is lower in “PBM E-score” value: -0.051 for the first, -0.224 for the second.

Going from CGACGGAC to GAACTAAA, the “PBM E-score” value rises from -0.137 to 0.247.

Compared with AGCTTGAA, TCAGACCA is higher in “PBM E-score” value: -0.0125 for the first, 0.0264 for the second.

Going from AAGATTTC to ACCATTTG, the “PBM E-score” value falls from 0.169 to 0.0814.

Compared with ATCATCTG, CGTGCTAG is lower in “PBM E-score” value: 0.0767 for the first, -0.17 for the second.

Going from GAGGCGTA to AACTATAT, the “PBM E-score” value rises from 0.023 to 0.193.

Compared with AGTAGCTG, GCGATTAA is higher in “PBM E-score” value: -0.149 for the first, 0.168 for the second.

Compared with CGTGTCAA, CAGTCCCG is lower in “PBM E-score” value: 0.00368 for the first, -0.235 for the second.

Compared with CGTGAGCA, CAATACCG is higher in “PBM E-score” value: -0.07 for the first, 0.0644 for the second.

Compared with ACTTCTCA, GACAGTGC is lower in “PBM E-score” value: -0.0157 for the first, -0.0356 for the second.

Going from CGAGGAAG to AGTGCGTA, the “PBM E-score” value falls from 0.0593 to -0.174.

Going from GAAGGATC to ACCACGTA, the “PBM E-score” value falls from -0.181 to -0.194.

First: GGACAGAC
Second: CGCGACAC
The “PBM E-score” value of the first is lower: -0.123 for the first, 0.133 for the second.

Compared with ATAGGCGG, CGCTTCCA is lower in “PBM E-score” value: 0.0245 for the first, -0.0876 for the second.

Compared with GTTTGGAA, ATTTTACC is higher in “PBM E-score” value: 0.217 for the first, 0.277 for the second.

First: GGAGCGCA
Second: CAAGTTAC
The “PBM E-score” value of the first is lower: -0.293 for the first, 0.0412 for the second.

Going from CCTTTCAG to CCTTATGA, the “PBM E-score” value rises from -0.115 to 0.0898.

First: CAAGCAAG
Second: AATGTTAA
The “PBM E-score” value of the first is lower: 0.0543 for the first, 0.102 for the second.

Compared with AGACCGCA, ACTGCGAT is higher in “PBM E-score” value: -0.0945 for the first, -0.072 for the second.

Going from CACCGACC to AATGTCTA, the “PBM E-score” value falls from -0.116 to -0.119.

Compared with TTGCAAAA, GGAGATCC is lower in “PBM E-score” value: 0.242 for the first, -0.168 for the second.

First: AACATATA
Second: AGGGCTGG
The “PBM E-score” value of the first is higher: 0.105 for the first, -0.185 for the second.

Compared with CTAAGTTC, CGGGGGGA is lower in “PBM E-score” value: -0.152 for the first, -0.188 for the second.

Compared with GACCCGTC, AGAGTTCA is lower in “PBM E-score” value: -0.0556 for the first, -0.222 for the second.

Going from CATTTGGA to CTCGGAGC, the “PBM E-score” value rises from 0.0569 to 0.119.

First: AACCTACT
Second: CAAAAAGA
The “PBM E-score” value of the first is lower: 0.125 for the first, 0.178 for the second.

First: CGTTAGGC
Second: ACCCAGAG
The “PBM E-score” value of the first is higher: -0.0275 for the first, -0.0365 for the second.

First: CTACGACA
Second: CCCGCCAG
The “PBM E-score” value of the first is lower: -0.0604 for the first, 0.0464 for the second.

First: CATTTCCG
Second: AAGGGTGC
The “PBM E-score” value of the first is higher: 0.195 for the first, -0.0793 for the second.

Compared with TAGTCTCA, ACCCCACA is higher in “PBM E-score” value: 0.0995 for the first, 0.119 for the second.

Compared with AGGCGCGA, GCTTCCCC is lower in “PBM E-score” value: 0.101 for the first, -0.00673 for the second.

Compared with ATCAACCC, TCAAGGGA is lower in “PBM E-score” value: 0.168 for the first, -0.179 for the second.

First: ATTACCGC
Second: GTCACTAA
The “PBM E-score” value of the first is higher: 0.204 for the first, 0.0793 for the second.

Compared with CCTGGCAA, GGCCTCGA is higher in “PBM E-score” value: -0.0699 for the first, -0.0449 for the second.

First: AGCTCCAA
Second: CAACGTTA
The “PBM E-score” value of the first is lower: 0.0117 for the first, 0.0893 for the second.

Going from GACGGGGC to AATTCACA, the “PBM E-score” value rises from 0.105 to 0.113.

Going from CTACACAC to AATAAGCG, the “PBM E-score” value rises from -0.0103 to 0.0163.

Going from CCCGTAGC to ATACTATG, the “PBM E-score” value rises from -0.258 to 0.11.

Going from ACATGCTG to GGGGGCCA, the “PBM E-score” value falls from -0.141 to -0.242.

Compared with ATTACTAA, ACCCATTC is lower in “PBM E-score” value: 0.143 for the first, 0.0137 for the second.

First: CGTGCAGC
Second: ATAATGGA
The “PBM E-score” value of the first is lower: 0.0121 for the first, 0.132 for the second.
